Hit rate of the full screen: of about 39,000 compounds, about 220 (0.56%) showed activity. Some of the results follow.
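Also: static incubation at 37 °C against the wild-type strain, values averaged over two biological replicates.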

In this assay the test system is Escherichia coli K-12 BW25113. In words: relative growth (OD600 normalised to plate interquartile mean) (fraction); higher = less growth inhibition, active = 0.2 or less. Conditions: 50 µM; LB; incubation time: overnight (16-24 h).
Take `C[C@@H]1CN([C@@H](C)CO)C(=O)Cc2cc(NS(=O)(=O)c3ccc(F)cc3)ccc2O[C@H]1CN(C)C(=O)Nc1cccc2ccccc12`: the relative growth is inactive: 1.01.
Next, `C[C@@H]1CCCCO[C@H](CN(C)C(=O)NC2CCCCC2)[C@@H](C)CN([C@H](C)CO)C(=O)c2cc(NC(=O)Nc3ccc4c(c3)OCO4)ccc2O1`: inactive: 1.04.
Next, `C[C@@H]1CN([C@@H](C)CO)C(=O)Cc2cc(NC(=O)Nc3cccc4ccccc34)ccc2O[C@@H]1CN(C)Cc1ccc(Cl)c(Cl)c1`: inactive: 1.05.
Then `Cc1noc(C)c1NC(=O)N(C)C[C@@H]1Oc2c(NS(=O)(=O)c3c(C)noc3C)cccc2C(=O)N([C@@H](C)CO)C[C@@H]1C`, with inactive: 0.884.
For the compound `C[C@H](CO)N1C[C@H](C)[C@H](CN(C)S(=O)(=O)c2ccc(-c3ccccc3)cc2)OCc2cn(nn2)CCCC1=O`, the relative growth is inactive: 1.02.
Next, `COC(=O)NCCOc1nc(N(C)C)nc(N(C)C)n1`: inactive: 1.01.
With `Cn1cnc(CCNC(=O)C[C@H]2CC[C@@H]3[C@H](COC[C@H](O)CN3C(=O)Nc3ccc(C(F)(F)F)cc3)O2)c1`, the relative growth was inactive: 0.934.
Next, `C[C@@H]1CN([C@H](C)CO)C(=O)Cc2cc(NS(=O)(=O)c3ccccc3)ccc2O[C@H]1CN(C)S(C)(=O)=O`: inactive: 0.995; `C[C@H]1CN([C@@H](C)CO)C(=O)c2cc(NC(=O)Cn3cnnn3)ccc2O[C@@H]1CN(C)CC1CCCCC1`: inactive: 0.992; `CS(=O)(=O)N1CCCn2c(nnc2Cn2cccn2)C1`: inactive: 0.961.
Then `C[C@H](CO)N1C[C@H](C)[C@@H](CN(C)C(=O)Nc2cccc3ccccc23)OCCCC[C@H](C)Oc2ccc(NC(=O)CCCN(C)C)cc2C1=O`, with inactive: 0.994.
Then `C[C@H](CO)N1C[C@H](C)[C@@H](CN(C)S(C)(=O)=O)Oc2ccc(NC(=O)Cc3ccccc3)cc2CC1=O`, with inactive: 1.01; and `CC(C)NC(=O)Nc1cccc2c1O[C@H](CN(C)S(=O)(=O)c1ccc(Cl)cc1)[C@H](C)CN([C@@H](C)CO)C2=O`, with inactive: 0.978; and `COc1ccc(CN(C)C[C@@H]2Oc3c(NS(=O)(=O)c4c(C)noc4C)cccc3C(=O)N([C@@H](C)CO)C[C@@H]2C)cc1`, with inactive: 1.
For `C[C@H](CO)N1C[C@H](C)[C@@H](CN(C)Cc2ccncc2)Oc2cc(C#CCN(C)C)ccc2S1(=O)=O`, the relative growth was inactive: 0.992.
Next, `C=CCOC(=O)[C@H]1[C@@H]2C(=O)O[C@@H](c3ccccc3)[C@@H](c3ccccc3)N2[C@@H](c2ccc(OCCOC(=O)[C@H]3C[C@H]4C(=O)N[C@@H](CCCCNC(C)=O)C(=O)N4[C@H]3c3cccc(OCCO)c3)cc2)[C@]12C(=O)Nc1ccc(I)cc12`: inactive: 1.07; `C=CCSc1n[nH]c2nc(=O)cc(N)n12`: inactive: 0.993; `CNC[C@@H]1Oc2cc(C#CCN(C)C)ccc2S(=O)(=O)N([C@H](C)CO)C[C@@H]1C`: inactive: 0.975.
Next, `Cc1noc(C)c1S(=O)(=O)N(C)C[C@@H]1Oc2ccc(NS(=O)(=O)c3ccc(Cl)cc3)cc2CC(=O)N([C@H](C)CO)C[C@@H]1C`: inactive: 1.01; `C[C@H](CO)N1C[C@H](C)[C@H](CN(C)S(=O)(=O)c2ccc(F)cc2)Oc2ccc(NS(C)(=O)=O)cc2C1=O`: inactive: 1; `C[C@@H]1CN([C@@H](C)CO)C(=O)c2cc(NS(=O)(=O)c3ccccc3)ccc2O[C@@H]1CN(C)S(=O)(=O)c1cccs1`: inactive: 0.99.
Next, `Nc1oncc1-c1ccc(Cl)cc1`: inactive: 0.968; `CC(C)NC(=O)N(C)C[C@@H]1Oc2ccc(NS(=O)(=O)c3cccs3)cc2C(=O)N([C@@H](C)CO)C[C@H]1C`: inactive: 0.979; `COCC#Cc1ccc2c(c1)O[C@H](CN(C)Cc1ccccc1F)[C@@H](C)CN([C@H](C)CO)S2(=O)=O`: inactive: 1.06.
In the case of `Cc1noc(C)c1NC(=O)Nc1ccc2c(c1)CC(=O)N([C@H](C)CO)C[C@H](C)[C@H](CN(C)S(=O)(=O)c1c(C)noc1C)O2`, the relative growth is inactive: 1.02.
On to `COc1ccc(CN(C)C[C@@H]2Oc3ccc(NC(=O)Cn4cnnn4)cc3CC(=O)N([C@H](C)CO)C[C@@H]2C)cc1`, for which the relative growth was inactive: 1.02.
Next, `CC[C@H]1OC(=O)C[C@@H](O)[C@H](C)[C@@H](O[C@@H]2O[C@H](C)[C@@H](O)[C@H](N(C)C)[C@H]2O)[C@@H](CCN2C[C@H](C)C[C@H](C)C2)C[C@@H](C)C(=O)/C=C/C(C)=C/[C@@H]1CO[C@@H]1O[C@H](C)[C@@H](O)[C@@H](OC)[C@H]1OC`: inactive: 0.325; `Cc1ccc2nc(CN)cn2c1`: inactive: 0.97.
Then `C[C@@H]1CN([C@H](C)CO)C(=O)c2cc(N(C)C)ccc2O[C@@H](C)CCCCO[C@@H]1CN(C)C(=O)CCCN(C)C`, with inactive: 0.978; and `COc1ccc([Si](C)(C)[C@@H]2[C@@H](CCOC(=O)NCCCCCC(=O)NO)O[C@]3(C(=O)N(Cc4ccccc4)c4ccc(I)cc43)[C@H]2C)cc1`, with inactive: 1.02; and `OC[C@H]1O[C@@H](Oc2c[nH]c3ccccc23)[C@H](O)[C@@H](O)[C@@H]1O`, with inactive: 0.991.
Next, `NC1CCC(N[C@@H]2C[C@H]2c2ccccc2)CC1` (stereo partly drawn): inactive: 0.986; `C[C@H]1CN([C@@H](C)CO)C(=O)Cc2cc(NC(=O)Nc3ccccc3)ccc2O[C@H]1CN(C)Cc1ccc(-c2ccccc2)cc1`: inactive: 0.995.
`C[C@@H]1CN([C@H](C)CO)C(=O)c2cc(NC(=O)Nc3ccc(F)cc3)ccc2O[C@@H]1CN(C)C(=O)Nc1ccc(C(F)(F)F)cc1`: the relative growth is inactive: 0.946.
Then `CO[C@@H]1CN(C)C(=O)c2cc(NS(=O)(=O)c3ccccc3C)ccc2OC[C@H](C)N(S(C)(=O)=O)C[C@H]1C`, with inactive: 0.974; and `CCCN(CCC)S(=O)(=O)c1ccc(C(=O)N(c2cccc(SC)c2)[C@H]2OC(=O)c3ccccc32)cc1`, with inactive: 0.993.
Next, `C[C@@H]1CN([C@H](C)CO)C(=O)Cc2cc(NC(=O)Cc3ccccc3)ccc2O[C@@H]1CN(C)Cc1ccc(-c2ccccc2)cc1`: inactive: 1.01.
On to `Cc1noc(C)c1S(=O)(=O)N(C)C[C@@H]1Oc2ccc(NC(=O)Cc3ccccc3)cc2CC(=O)N([C@@H](C)CO)C[C@H]1C`, for which the relative growth was inactive: 1.01.
Next, `CN(Cn1[nH]c(=O)ccc1=O)c1ccccc1`: inactive: 0.991.
In the case of `C[C@@H]1CCCCO[C@H](CN(C)Cc2ccc(C(=O)O)cc2)[C@H](C)CN([C@H](C)CO)C(=O)c2cc(NC(=O)NC3CCCCC3)ccc2O1`, the relative growth was inactive: 0.979.
Then `Cc1noc(C)c1NC(=O)Nc1ccc2c(c1)C(=O)N([C@H](C)CO)C[C@H](C)[C@H](CN(C)Cc1ccc(C(F)(F)F)cc1)O2`, with inactive: 0.908; and `Cc1noc(C)c1S(=O)(=O)Nc1ccc2c(c1)C(=O)N([C@H](C)CO)C[C@@H](C)[C@H](CN(C)C(=O)Nc1ccc(F)cc1)OCCCC[C@@H](C)O2`, with inactive: 1.03.
Next, `C[C@@H]1CN([C@H](C)CO)C(=O)c2cccc(NC(=O)c3cnccn3)c2O[C@H]1CN(C)CC1CCCCC1`: inactive: 1.02; `C[C@@H]1CN([C@H](C)CO)C(=O)Cc2cc(NC(=O)Nc3cccc4ccccc34)ccc2O[C@@H]1CN(C)S(=O)(=O)c1ccc(Cl)cc1`: inactive: 1.03; `C[C@@H]1CCCCO[C@H](CN(C)C(=O)Nc2ccc3c(c2)OCO3)[C@H](C)CN([C@@H](C)CO)C(=O)c2cc(NC(=O)Nc3ccc(F)cc3)ccc2O1`: inactive: 0.991.
Consider `C[C@H](CO)N1C[C@H](C)[C@H](CN(C)Cc2ccc3c(c2)OCO3)OCCCC[C@H](C)Oc2ccc(NC(=O)Nc3ccc4c(c3)OCO4)cc2C1=O`, for which the relative growth is inactive: 0.982.
Next, `Cc1ccc(S(=O)(=O)N(C)C[C@@H]2OCCCC[C@@H](C)Oc3ccc(NC(=O)NC4CCCCC4)cc3C(=O)N([C@H](C)CO)C[C@H]2C)cc1`: inactive: 0.977; `O=C(C[C@@H]1C[C@H]2c3cc(NC(=O)Cc4ccncc4)ccc3O[C@H]2[C@@H](CO)O1)NCc1cccc(F)c1`: inactive: 0.994; `C[C@H](CO)N1C[C@H](C)[C@H](CN(C)Cc2ccncc2)Oc2ccc(NS(=O)(=O)c3cn(C)cn3)cc2C1=O`: inactive: 1.01.
Turning to `CC(C)OC(=O)C(C)(C)Oc1ccc(C(=O)c2ccc(Cl)cc2)cc1`, the relative growth was inactive: 0.999.
Then `COc1cccc(S(=O)(=O)Nc2ccc3c(c2)[C@@H]2C[C@H](CC(=O)N4CCCCC4)O[C@H](CO)[C@@H]2O3)c1`, with inactive: 0.998; and `Cc1ccccc1S(=O)(=O)N1C[C@H](O)COC[C@H]2O[C@@H](CC(=O)N3CCOCC3)CC[C@@H]21`, with inactive: 0.995.
Next, `COc1cc([C@@H]2c3cc4c(cc3[C@@H](O[C@@H]3O[C@@H]5CO[C@@H](C)O[C@H]5[C@H](O)[C@H]3O)[C@H]3COC(=O)[C@H]23)OCO4)cc(OC)c1O`: inactive: 0.978; `Cc1ccc(S(=O)(=O)N(C)C[C@@H]2Oc3c(NC(=O)c4cc(C)nn4C)cccc3C(=O)N([C@H](C)CO)C[C@@H]2C)cc1`: inactive: 1.04; `COc1cc2c3cc1Oc1cc(ccc1O)O[C@H]1c4c(cc(OC)c(O)c4Oc4ccc(cc4)C[C@@H]3N(C)CC2)CCN1C`: inactive: 0.993.
For the compound `CC(C)(C)[S@@](=O)N1Cc2cc(C(=O)NCC(F)(F)F)nc(-c3cccc(-c4cccc(F)c4)c3)c2[C@H]1CCO`, the relative growth is inactive: 1.04.
Next, `C[C@@H]1CCCCO[C@H](CN(C)S(=O)(=O)c2cn(C)cn2)[C@H](C)CN([C@@H](C)CO)C(=O)c2cc(NC(=O)Nc3cccc4ccccc34)ccc2O1`: inactive: 1.02; `O=C(C[C@@H]1CC[C@H]2[C@@H](COC[C@@H](O)CN2C(=O)Nc2cccc(Cl)c2)O1)NCCCN1CCOCC1`: inactive: 0.947.

Values taken from the supplement of paper PMC9446081.
